Screen size: about 110,000 compounds; about 230 (0.21%) showed an effect of 50% or more. This is one part of the list.
The compounds below were run against DPAP1 (Plasmodium falciparum, UniProt Q8IIJ9) (assay: primary screen, percent inhibition; read by cleavage of a fluorogenic dipeptide substrate; higher = more effect of the substance).
Parameters: species or system P. falciparum D10 trophozoite lysates; single well
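Further: 30 min substrate incubation versus DMSO and 10 µM JCP410 controls.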

Chain of DPAP1 (Q8IIJ9 whole entry, looked up): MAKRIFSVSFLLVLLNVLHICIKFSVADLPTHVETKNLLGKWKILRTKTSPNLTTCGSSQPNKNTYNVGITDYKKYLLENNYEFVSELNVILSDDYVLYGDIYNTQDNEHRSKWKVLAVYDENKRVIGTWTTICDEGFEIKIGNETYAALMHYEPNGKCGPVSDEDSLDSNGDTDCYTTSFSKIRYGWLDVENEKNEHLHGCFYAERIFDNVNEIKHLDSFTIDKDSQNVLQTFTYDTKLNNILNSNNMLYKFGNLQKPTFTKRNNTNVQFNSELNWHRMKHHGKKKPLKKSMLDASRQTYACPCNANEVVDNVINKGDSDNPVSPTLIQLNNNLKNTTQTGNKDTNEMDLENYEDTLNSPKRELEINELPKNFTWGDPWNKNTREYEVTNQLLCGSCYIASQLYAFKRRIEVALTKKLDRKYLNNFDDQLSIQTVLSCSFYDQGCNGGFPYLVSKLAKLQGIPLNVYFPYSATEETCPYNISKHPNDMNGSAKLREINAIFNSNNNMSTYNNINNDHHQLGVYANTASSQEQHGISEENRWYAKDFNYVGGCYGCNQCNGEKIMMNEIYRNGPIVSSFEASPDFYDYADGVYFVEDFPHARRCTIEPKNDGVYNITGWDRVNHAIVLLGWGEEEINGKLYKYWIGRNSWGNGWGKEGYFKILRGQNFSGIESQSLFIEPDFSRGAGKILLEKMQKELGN

| SMILES | % Inhibition @ 10 uM [%] |
| --- | --- |
| OCC1CCCN1Cc1ccc(Br)cc1 (stereo not drawn) | -5.65 |
| C=CCOc1ccc(/C=C2\SC(=N)N(c3nonc3N)C2=O)cc1OCC | 0.727 |
| CCc1ccc2nc(N3CCC(C(=O)NCCC4=CCCCC4)CC3)sc2c1 | -0.406 |
| COc1ccc(CCC(=O)Nc2cc(Cl)ccc2Cl)cc1 | -3.49 |
| Cc1cccc(OCC(=O)Nc2cc(C)ccn2)c1 | 1.93 |
| C(=C\c1nc2ccccc2n1Cc1ccccc1)/c1ccco1 | -2.28 |
| Cc1cc(Cl)ccc1OCC(=O)NC1CCCCC1 | 3.68 |
| CC(C)c1ccc(-n2nnc(-c3nc(-c4ccccc4)no3)c2N)cc1 | -5.65 |
| COc1ccccc1C1C(C#N)=C(N)Oc2cc(O)ccc21 (stereo not drawn) | -1.37 |
| COc1ccc(NC2=NC(=O)/C(=C/c3ccc(N4CCCC4)o3)S2)cc1 | 6.71 |
| CCCCN(CCCC)S(=O)(=O)c1c[nH]c(C(=O)OC)c1 | -5.61 |
| COc1ccc(-c2cc(C(F)F)n3ncc(C(=O)Nc4cc(OC)c(OC)c(OC)c4)c3n2)cc1 | 0.115 |
| CCOc1ccc(NC(=O)CN2C(=O)S/C(=C/c3cc(C)n(C(C)C)c3C)C2=O)cc1 | -6.74 |
| Cc1nnc(N=Nc2c(O)n(Cc3ccccc3)c3ccccc23)n1N | -3.41 |
| O=C1NN=C2CC34CCC12CC3=NNC4=O | -1.29 |
| COc1ccc(N(C(=O)c2ccccc2)C2=CC3CCC(C2)N3C)cc1 (stereo not drawn) | -0.28 |
| CC(=O)N/C(=C\c1ccc(Br)s1)C(=O)O | 3.47 |
| CC1(C)CC(NC(=O)c2cc(Cl)c(Cl)cc2C(=O)O)CC(C)(C)N1 | 3.66 |
| N#Cc1nc(/C=C/c2cccs2)oc1NCCc1ccccc1 | 3.27 |
| COc1ccc(CN2CCN(c3ccccn3)CC2)c(C)c1C | -1.77 |
| CC(C)(C)c1ccc(C(=O)Nc2ccc(S(=O)(=O)N3CCCC3)cc2)cc1 | 1.84 |
| COc1ccc(NC(=O)c2ccc(Br)cc2)c2cccnc12 | -4.26 |
| C=CCc1ccc(OCCn2c(C(O)CC)nc3ccccc32)c(OC)c1 (stereo not drawn) | -3.08 |
| COc1ccc2c(CNCc3cc(OC)c(OC)c(OC)c3)c(C(=O)O)[nH]c2c1 | -3.86 |
| Cc1ccccc1CN(CC(=O)NCc1ccccc1)S(=O)(=O)c1ccc(Cl)cc1 | 2.4 |
| O=C(CNS(=O)(=O)c1ccccc1)NCc1ccccc1Cl | -1.22 |

| SMILES | % Inhibition @ 10 uM [%] |
| --- | --- |
| N#CC1=C(N)NC(SCC(=O)c2ccc(Cl)cc2)=C(C#N)C12CCCCC2 | 31.7 |
| Cc1ccccc1C(=O)Nc1cc2c(s1)CCCC2 | -7.34 |
| CCOc1ccc(CCNC(=O)NCc2noc3ccccc23)cc1 | -1.39 |
| Cc1ccc(S(=O)(=O)N2CCOCC2)cc1C | 1.25 |
| O=C(NCCn1ccc2ccccc21)C12CC3CC(CC(C3)C1)C2 | 0.8 |
| Cc1ccc(OCCCCCc2c(C)n[nH]c2C)cc1 | 1.35 |
| O=C(Nc1ccc(NC(=O)c2ccco2)c(Cl)c1)c1ccccc1 | -5.85 |
| CS(=O)(=O)N(Cc1ccc(C(=O)N2CCN(c3ccccc3)CC2)cc1)c1ccccc1 | -2.28 |
| COc1ccc(CCn2c(=O)c3cccnc3n(Cc3ccc(C)cc3C)c2=O)cc1OC | -3.66 |
| O=C1CCCc2c1[nH]c1ccc(F)cc21 | -4.61 |
| CC1=C(C(=O)NCCN2CCC(Cc3ccccc3)CC2)C2(CCCCC2)OC1=O | -3.7 |
| COCCCN1C(=O)S/C(=C/c2cc(OC)c(O)c(OC)c2)C1=O | 0.709 |
| CCCN(CCC)CCNC(=O)C(Cc1ccccc1)NS(=O)(=O)c1cccc2nsnc12 (stereo not drawn) | 2 |
| Cc1ccccc1N(CC(=O)N1CCc2ccccc2C1)S(=O)(=O)c1ccccc1 | -2.03 |
| CCOC(=O)c1c(NC(=O)c2cnn3c(C(F)F)cc(-c4ccccc4)nc23)sc2c1CCC2 | -4.62 |
| Cc1ccc(-n2ncnc2-c2cccnc2)cc1Cl | 0.392 |
| CC(C)CN(CC(C)C)c1ncnc2c1cnn2-c1ccc(Cl)cc1 | -0.438 |
| Cc1cccc(C)c1OCC(=O)Nc1sc2c(c1C#N)CCCC2 | 12.2 |
| COc1ccc(OC)c(NC(=O)c2cccc(C(=O)Nc3cc(OC)ccc3OC)c2)c1 | 3.93 |
| O=C(O)c1ccccc1C(=O)Nc1cccc(-c2cn3ccsc3n2)c1 | 2.38 |
| Cc1cccc(OCCCCCCN2CCOCC2)c1 | -2.28 |
| COCc1cc(C)nc(Nc2ccc(C)c(C)c2)c1C#N | -0.436 |
| COc1ccccc1CN1COc2c(cc3c(C)c(C)c(=O)oc3c2C)C1 | 0.895 |
| COCCCNS(=O)(=O)c1ccc2[nH]c(O)nc2c1 | 5.62 |
| Cn1nc(C(=O)NCc2ccco2)c2c1-c1ccccc1S(=O)(=O)C2 | -3.53 |
| COC(=O)c1cccc(NC(=O)Cc2ccccc2)c1 | -1.82 |

| SMILES | % Inhibition @ 10 uM [%] |
| --- | --- |
| COc1ccc(S(=O)(=O)N(CC(=O)NCC2CCCO2)c2ccc(C)cc2)cc1 (stereo not drawn) | -2.28 |
| Cc1ccc(/N=C/c2c(C)nn(-c3ccc(F)cc3)c2O)c(C)c1 | -2.16 |
| Cn1c(=O)[nH]c(=O)c2c1nc(N1CCc3ccccc3C1)n2CCSc1nc2ccccc2s1 | -0.946 |
| COCCNC(=O)CCNS(=O)(=O)c1cc(Br)cnc1N | -4.69 |
| CN(C)c1ccc(C2CC(c3ccc(Cl)cc3)=NN2S(C)(=O)=O)cc1 (stereo not drawn) | 6.24 |
| Cc1nn(-c2ccccc2)c2nc3ccc(Cl)cc3cc12 | 1.52 |
| O=C(COCc1cc(-c2cccs2)on1)NCCc1cccs1 | -1.58 |
| Cc1ccc(C)c(Cn2cnc3c(oc4ccccc43)c2=O)c1 | 2.19 |
| CSc1ccc(Cl)c(C(=O)Nc2cccnc2)c1 | -0.996 |
| Cc1cc(C)nc(SCc2ccc(F)cc2)n1 | -1.96 |
| Cc1ccc2c(cnn2C(=O)CCCC(=O)NC2CCCC2)c1 | 0.596 |
| O=C(Nc1ccc2nc(O)nc(-c3ccccc3)c2c1)c1ccccc1 | -3.92 |
| COCCCNC(=O)C1CCC(CNS(=O)(=O)c2ccccc2)CC1 (stereo not drawn) | -2.72 |
| COc1ccc2[nH]c(SCC(O)C(C)(C)C)nc2c1 (stereo not drawn) | -4.39 |
| CCN(CC)CCOc1c(Br)ccc2c1sc1nc3n(c(=O)c12)CCC3 | 4.54 |
| COc1ccc(NC(=O)Cc2ccccc2F)cc1 | -2.09 |
| CCc1nnc(NC(=O)c2cc3c(s2)-c2ccc(Cl)cc2SC3)s1 | 0.953 |
| COc1ccc(N2C(=O)c3cc(Cl)c(Cl)cc3C2=O)cc1 | 1.52 |
| CCCCNC(=O)C(=O)Nc1cc(C)ccc1C | -3.57 |
| CCOc1ccc(NC(=O)Cc2ccccc2)cc1 | -0.268 |
| O=C(NCCCn1ccnc1)/C(=C\c1cccnc1)NC(=O)c1ccccc1F | 11.2 |
| COc1ccccc1[C@@H](C)C[C@H](NC(=O)c1ccc(-c2c(Cl)cccc2Cl)nc1)C(=O)NCC#N | 1.61 |
| CCC(=O)N(CCN(Cc1ccccc1)C(=O)CC)Cc1ccccc1 | -1.06 |
| CC(C)(C)NC(=O)CN(Cc1ccccc1)S(=O)(=O)c1ccccc1 | -3.84 |
| N#C/C(=C\c1cc2c(cc1Cl)OCO2)c1nn(-c2ccccc2)c(N)c1C#N | 13.2 |
| CSc1ncc(Cl)c(C(=O)NCc2ccccc2)n1 | -2.85 |

| SMILES | % Inhibition @ 10 uM [%] |
| --- | --- |
| CCC(=O)NCc1cc(-c2nn(C)c(=O)c3ccccc23)ccc1C | -2.98 |
| NS(=O)(=O)c1cc(O)c2c(S(N)(=O)=O)cccc2c1 | -3.77 |
| O=C(c1ccc(Br)o1)N1CCN(c2cccc(C(F)(F)F)c2)CC1 | 0.331 |
| O=C1CCCN2N=C(SCc3ccc(F)cc3)SC2=N1 | 4.65 |
| CCOC(=O)N1CCC(c2cc(O)n3ncc(C(=O)OC)c3n2)CC1 | -2.83 |
| CCOC(=O)C1=C(C)N=c2s/c(=C\c3c[nH]c4ccccc34)c(=O)n2C1c1ccc(Cl)cc1 (stereo not drawn) | 3.01 |
| CCOc1ccccc1C(=O)Nc1ccccc1C(F)(F)F | -4.59 |
| CC1CC(C)CN(Cc2nc3c(c(=O)n(C)c(=O)n3C)n2Cc2ccccc2)C1 (stereo not drawn) | -2.29 |
| Cc1ccc(C(C)C)c(OCC(=O)Nc2ccccc2C)c1 | -4.06 |
| Cc1cc(C)nc(SCC(=O)c2cccs2)n1 | 0.587 |
| Cc1cc(C)c2nc3c(nc2c1)C(=O)c1ccccc1C3=O | -1.94 |
| CN(C)S(=O)(=O)Oc1cccc2cccnc12 | -1.06 |
| Cc1ccc(C2=NS(=O)(=O)N(C)C(C(=O)N3C(C)CC(C)CC3C)=C2)cc1 (stereo not drawn) | -1.06 |
| Nc1nnc(SCC(=O)n2c3c(c4ccccc42)CCCC3)s1 | 12 |
| Cc1oc(-c2ccc(Cl)cc2)nc1CSCC(=O)NCCCSC1CCCCC1 | -2.85 |
| CCCn1c(NCc2cc(C)ccc2O)nc2ccccc21 | -2.87 |
| COc1ccc(S(=O)(=O)N2CCC(C(=O)O)CC2)cc1C(=O)O | 3.06 |
| COc1ccccc1C1CN(c2ccc(Br)cc2)N=C1c1cccs1 (stereo not drawn) | 1.04 |
| CNC(=O)c1cc2c(n(-c3ccccc3)c1=O)CC(C)(C)CC2=O | 5 |
| Nc1c(C(=O)NCc2ccc(F)cc2)sc2nc3c(cc12)N1CCC3CC1 | -0.0678 |
| O=C(C1CC(=O)N(C2CCCC2)C1)N1CCC(Cc2ccccc2)CC1 (stereo not drawn) | 3.79 |
| O=C(Nc1sc2c(c1C(=O)NC1CCS(=O)(=O)C1)CCCC2)c1ccc(Cl)cc1Cl (stereo not drawn) | -1.89 |
| CN(C)CCNC(=O)CNC(=O)C1CCCCC1 | -5.14 |
| CN(c1ccc(C(=O)N2CCCCC2)cc1)S(C)(=O)=O | -7.83 |
